Experimental data: PubChem BioAssay AID504332 (National Center for Advancing Translational Sciences (NCATS), 2011)
Values joined by “and” are separate entries in the source; they are usually repeats but may differ in a detail not shown here. Equal values may be shown once. Hit rate of the full screen: of about 350,000 compounds, about 31,000 (8.9%) were called active. Inconclusive means that the source gave no clear call. Such entries were picked first, then a sample of the others. Calls follow the shape of the dose curve; as a rule, active = well fitted inhibition curve with a large enough effect; inconclusive = small, poorly fitted or top-dose-only effect; inactive = no such curve, though single readings can be large or run the other way. Potencies of inconclusive entries are doubtful fits and often do not repeat. A structure can be active in one record and inactive in another.

What follows are compounds tested against Histone-lysine N-methyltransferase EHMT2 (Homo sapiens) (UniProt Q96KQ7) (assay: qHTS Assay for Inhibitors of Histone Lysine Methyltransferase G9a). Details: G9a H3K9 monomethylation, AlphaScreen, 2 h; activity, negative = inhibition: at 59 µM (top of the series) unless noted.
Sequence of UniProt Q96KQ7 (Q96KQ7 whole entry, looked up): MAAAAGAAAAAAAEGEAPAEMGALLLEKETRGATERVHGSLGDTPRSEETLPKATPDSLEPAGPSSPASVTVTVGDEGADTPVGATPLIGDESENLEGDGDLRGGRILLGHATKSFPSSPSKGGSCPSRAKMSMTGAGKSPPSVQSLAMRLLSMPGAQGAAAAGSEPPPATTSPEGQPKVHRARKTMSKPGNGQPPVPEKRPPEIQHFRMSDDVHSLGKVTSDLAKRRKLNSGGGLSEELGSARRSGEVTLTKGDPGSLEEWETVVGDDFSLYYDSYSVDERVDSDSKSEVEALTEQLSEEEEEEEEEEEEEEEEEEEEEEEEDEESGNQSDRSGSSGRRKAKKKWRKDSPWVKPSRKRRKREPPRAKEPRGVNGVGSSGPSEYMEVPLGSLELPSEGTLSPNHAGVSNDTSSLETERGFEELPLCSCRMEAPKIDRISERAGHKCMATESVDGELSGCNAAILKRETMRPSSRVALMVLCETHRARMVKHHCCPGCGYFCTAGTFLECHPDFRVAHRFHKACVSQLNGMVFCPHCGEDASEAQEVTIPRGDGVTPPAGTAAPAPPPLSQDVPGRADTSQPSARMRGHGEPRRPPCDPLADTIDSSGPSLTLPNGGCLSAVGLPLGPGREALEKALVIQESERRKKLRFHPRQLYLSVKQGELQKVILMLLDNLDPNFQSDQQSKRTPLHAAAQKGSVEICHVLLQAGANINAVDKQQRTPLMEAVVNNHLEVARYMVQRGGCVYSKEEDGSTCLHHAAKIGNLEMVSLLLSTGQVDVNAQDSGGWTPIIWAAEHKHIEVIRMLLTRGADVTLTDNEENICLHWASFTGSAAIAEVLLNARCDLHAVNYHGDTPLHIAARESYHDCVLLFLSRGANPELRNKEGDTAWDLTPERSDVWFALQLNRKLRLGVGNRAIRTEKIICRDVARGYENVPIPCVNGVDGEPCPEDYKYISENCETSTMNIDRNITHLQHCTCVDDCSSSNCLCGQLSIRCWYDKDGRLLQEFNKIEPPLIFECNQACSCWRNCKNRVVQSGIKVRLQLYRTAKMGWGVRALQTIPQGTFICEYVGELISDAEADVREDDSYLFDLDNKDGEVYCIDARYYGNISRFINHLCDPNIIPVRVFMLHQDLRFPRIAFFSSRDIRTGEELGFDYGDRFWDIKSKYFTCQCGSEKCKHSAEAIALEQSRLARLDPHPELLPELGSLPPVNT
Outline: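 Methyltransferase reactions run at room temperature for 2 h (20 nM enzyme, 500 nM biotin-H3K9 peptide, 20 uM SAM) after a 15 min compound preincubation; product detected by AlphaScreen beads and anti-H3K9me1 antibody.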
% is scaled to controls: 0 for no effect and ±100 for the full control effect; potency is read from the fitted curve at half-maximal effect; tags tell the direction and shape of the fitted curve.
Also: nearly all actives have a fitted effect of over 75% in size.

Row | SMILES | activity, negative = inhibition | Potency
1 | Cc1ccc(-c2cc(C(F)F)n3ncc(C(=O)N4CCCc5ccccc54)c3n2)cc1 | inactive: -6.89% | 
2 | Cc1ccc(NC(=O)N2CCCc3ccccc32)cc1 | inactive: 6.25% [at 102 µM] | 
3 | O=C1CCCc2c1cc(C(=O)NCCCN1CCOCC1)c(=O)n2-c1ccc(Cl)cc1 |  | inconclusive: 79.4 µM [inhibitor, single point]
4 | CC(C)N1CCN(C2CSCCSC2)CC1CCO (stereo not given) |  | inconclusive: 44.7 µM [inhibitor, partial curve, poor fit]
5 | CC(=O)c1c(C)[nH]c(C(=O)OCC(=O)N2CC(C)OC(C)C2)c1C (stereo not given) | inactive: 5.3% [at 12.7 µM] | 
6 | Cn1cccc1CC(=O)N/N=C/c1ccc(Cl)c([N+](=O)[O-])c1 |  | active: 50.1 µM
7 | CC1CCN(c2ccc(-c3nc(C(C)C)no3)cc2[N+](=O)[O-])CC1 | inactive: -31.8% | 
8 | O=C(Nc1ccccc1)c1cc([N+](=O)[O-])ccc1NCc1cccnc1 |  | inconclusive: 70.8 µM [inhibitor, single point]
9 | CCC(CC)C(=O)c1c[nH]c(C(=O)N2CCN(c3ccccc3)CC2)c1 | inactive: 13.6% | 
10 | CCOc1ccc(C2NC(=O)C(C#N)=C(S)N2c2ccc(C)cc2)cc1OC (stereo not given) |  | inconclusive: 31.6 µM [inhibitor, single point]
11 | CCOc1ccccc1NC(=O)c1c(NCc2sccc2C)sc2c1CCCCC2 |  | active: 10 µM
12 | Fc1ccccc1CN1CCN(c2ncccn2)CC1 |  | active: 22.4 µM
13 | O=C(CC(NCc1cccnc1)C(=O)O)Nc1ccc(F)cc1 (stereo not given) |  | inconclusive: 0.251 µM [inhibitor, full curve, poor fit]
14 | Cc1ccc(-c2nnn(CC(=O)N(CC(=O)NC3CCCCC3)c3ccccc3F)n2)o1 |  | active: 35.5 µM
15 | COC(=O)C(=CC(=CN(C)C)C=C(C(=O)OC)C(=O)OC)C(=O)OC |  | inconclusive: 70.8 µM [inhibitor, single point]
16 | CCOc1ccc(CCNC(=O)COC(=O)c2ccc(Cl)nc2)cc1OCC |  | inconclusive: 56.2 µM [inhibitor, partial curve, poor fit]
17 | COCCN(C(=O)c1ccc(-c2ccc(Cl)cc2)o1)c1c(N)n(CC(C)C)c(=O)[nH]c1=O |  | inconclusive: 25.1 µM [inhibitor, single point]
18 | CC(CNC(=O)c1ccco1)NC(=O)c1ccco1 (stereo not given) |  | inconclusive: 7.08 µM [inhibitor, full curve]

Row | SMILES | activity, negative = inhibition | Potency
19 | O=C(c1ccc(Cl)c(S(=O)(=O)NCc2ccco2)c1)N1CCN(c2ccc(F)cc2)CC1 |  | inconclusive: 89.1 µM [inhibitor, single point]
20 | COc1ccc(C)cc1NC(=O)c1sc2nc(C)nc(N3CCOCC3)c2c1C |  | inconclusive: 39.8 µM [inhibitor, single point]
21 | CC#CC[N+](C)(C)CCCCCC |  | inconclusive: 79.4 µM [inhibitor, single point]
22 | COc1ccc(-c2cn3c(C)c(C(=O)N4CCN(c5ccccc5F)CC4)sc3n2)cc1 |  | inconclusive: 70.8 µM [inhibitor, single point]
23 | Cc1oc(C(=O)Nc2ccc(O)cc2)cc1COc1ccccc1 |  | inconclusive: 8.91 µM [inhibitor, partial curve, poor fit]
24 | C=Cc1ccc(Cn2c(C(=O)O)c(CNCc3cc(Br)ccc3OC)c3ccc(C)cc32)cc1 |  | inconclusive: 3.55 µM [inhibitor, single point]
25 | CC(=O)OCC(=O)N1CCN(c2ccc([N+](=O)[O-])cc2)CC1 | inactive: 8.36% [at 102 µM] | 
26 | N#Cc1ccc2[nH]c(CO)c(-c3ccccc3)c2c1 |  | inconclusive: 100 µM [inhibitor, single point]
27 | Cc1nc(-c2ccc(NC(=O)CC(C)C)cc2)cs1 |  | inconclusive: 39.8 µM [inhibitor, single point]
28 | CC1(C)CC(=O)C=C(NCC(=O)O)C1 |  | inconclusive: 39.8 µM [inhibitor, single point]
29 | Cc1ccc2cn[nH]c2c1NC(N)=S |  | inconclusive: 79.4 µM [inhibitor, partial curve, poor fit]
30 | COc1cc(-c2nnc(SCCOc3cc(C)cc(C)c3)o2)cc(OC)c1OC | inactive: -45.5% | 
31 | CCCn1c(C2CC(=O)N(c3ccc(C)cc3)C2)nc2ccccc21 (stereo not given) | inactive: 23.9% [at 0.501 µM] | 
32 | Cc1ccc(NC(=O)COC(=O)c2ccc([N+](=O)[O-])o2)cc1S(=O)(=O)N1CCCCCC1 |  | inconclusive: 39.8 µM [inhibitor, partial curve, poor fit]
33 | Cc1cc(/C=C2/NC(=O)N(c3ccccc3)C2=O)c(C)n1-c1cccnc1 |  | inconclusive: 28.2 µM [inhibitor, single point]
34 | COc1ccc(CC(=O)Nc2ccc(N(C)C)c3ccccc23)cc1 | inactive: 17.8% [at 102 µM] | 
35 | CC(CN1c2ccccc2Sc2ccccc21)N(C)C (stereo not given) |  | active: 28.2 µM and active: 50.1 µM and active: 15 µM
